{"source": "the supplement of paper PMC3334620", "note": "Over roughly 33,000 sequences, “E-score (-0.5 to 0.5)” has its median near -0.054; the highest 2% begin near 0.35. The list shows a part of the results.", "data": [{"target": "T1, Stb5 (UniProt P38699)", "T1 sequence": "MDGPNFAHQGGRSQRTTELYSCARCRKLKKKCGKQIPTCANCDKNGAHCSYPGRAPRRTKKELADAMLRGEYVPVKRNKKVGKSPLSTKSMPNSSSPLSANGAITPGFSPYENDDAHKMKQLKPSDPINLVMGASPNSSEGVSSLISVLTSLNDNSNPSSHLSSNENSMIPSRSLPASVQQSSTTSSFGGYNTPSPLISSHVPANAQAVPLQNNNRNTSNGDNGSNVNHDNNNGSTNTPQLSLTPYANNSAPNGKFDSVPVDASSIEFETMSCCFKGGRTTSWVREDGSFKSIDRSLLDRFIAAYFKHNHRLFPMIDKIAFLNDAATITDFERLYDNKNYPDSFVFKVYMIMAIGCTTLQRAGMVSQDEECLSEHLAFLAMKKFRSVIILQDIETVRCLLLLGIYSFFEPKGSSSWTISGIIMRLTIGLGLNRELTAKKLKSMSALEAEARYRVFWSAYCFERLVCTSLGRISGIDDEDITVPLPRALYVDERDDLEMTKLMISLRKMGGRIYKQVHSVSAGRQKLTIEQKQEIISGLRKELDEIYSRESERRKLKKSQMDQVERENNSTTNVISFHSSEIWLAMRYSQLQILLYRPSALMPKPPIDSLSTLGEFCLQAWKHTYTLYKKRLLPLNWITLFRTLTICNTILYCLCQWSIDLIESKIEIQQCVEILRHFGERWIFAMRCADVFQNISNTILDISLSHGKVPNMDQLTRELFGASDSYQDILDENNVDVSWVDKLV", "assay": "PBM E-score (8-mer binding enrichment) (E-score (-0.5 to 0.5)); higher = stronger / more preferred TF binding; most listed sequences are background and not binding sites", "conditions": "protein concentration: 200 nM; construct: GST-full length", "summary_of_the_method": "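Detection of bound protein used fluorescent anti-GST, with scans normalised by masliner. The proteins were GST-tagged yeast transcription factors applied at about 100-200 nM to universal all-10-mer Agilent arrays made double-stranded by primer extension. Each ungapped eight-base word, pooled with its reverse complement, was scored with an E-score from the Universal PBM Analysis Suite.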", "values": [{"sequence": "AGCAGGAA", "PBM E-score": -0.185}, {"sequence": "CCGGAACG", "PBM E-score": 0.27}, {"sequence": "AAGGATCT", "PBM E-score": -0.117}, {"sequence": "CTGTGATA", "PBM E-score": -0.0353}, {"sequence": "ATCCGAAT", "PBM E-score": 0.0966}, {"sequence": "GGCAGGTA", "PBM E-score": 0.0611}, {"sequence": "CCAAGGTA", "PBM E-score": -0.11}, {"sequence": "AAAGACTC", "PBM E-score": -0.273}, {"sequence": "GTGTTAAA", "PBM E-score": 0.156}, {"sequence": "ATATTAGA", "PBM E-score": 0.0346}, {"sequence": "CCATGCCG", "PBM E-score": 0.143}, {"sequence": "AAAGGAGA", "PBM E-score": -0.251}, {"sequence": "GGAAGCGA", "PBM E-score": -0.128}, {"sequence": "GCTTGACC", "PBM E-score": -0.131}, {"sequence": "ACCGGCTA", "PBM E-score": 0.129}, {"sequence": "AAGGATAA", "PBM E-score": -0.0984}, {"sequence": "AGAAACGC", "PBM E-score": 0.0789}, {"sequence": "ATGTCCGG", "PBM E-score": 0.415}, {"sequence": "GTAGTAAA", "PBM E-score": -0.0283}, {"sequence": "ACAACTAC", "PBM E-score": -0.00065}, {"sequence": "GGGGCCTA", "PBM E-score": 0.0337}, {"sequence": "CTATCAAG", "PBM E-score": -0.0706}, {"sequence": "GTCTTCAC", "PBM E-score": 0.101}, {"sequence": "GTCTTCCA", "PBM E-score": -0.125}, {"sequence": "ACGATAAT", "PBM E-score": -0.136}, {"sequence": "ATAATTAC", "PBM E-score": 0.0224}, {"sequence": "ACATAATG", "PBM E-score": 0.0577}, {"sequence": "GCACGTAA", "PBM E-score": -0.081}, {"sequence": "CGCTATAG", "PBM E-score": 0.174}, {"sequence": "ATCCGCAG", "PBM E-score": 0.166}, {"sequence": "AAGGACAG", "PBM E-score": -0.117}, {"sequence": "ATATCGTA", "PBM E-score": -0.114}, {"sequence": "GTTAGGTA", "PBM E-score": -0.0283}, {"sequence": "CTGCGAAC", "PBM E-score": -0.191}, {"sequence": "AGATATAC", "PBM E-score": -0.149}, {"sequence": "AATGGAGG", "PBM E-score": 0.0485}, {"sequence": "ATAGAGCC", "PBM E-score": 0.241}, {"sequence": "GCGACGGA", "PBM E-score": 0.283}, {"sequence": "ACAGGAGG", "PBM E-score": -0.144}, {"sequence": "ATATTACA", "PBM E-score": 0.195}, {"sequence": "AGTCTAGC", "PBM E-score": -0.0681}, {"sequence": "GACATCCC", "PBM E-score": -0.047}, {"sequence": "AATATAAA", "PBM E-score": 0.214}, {"sequence": "GAATCGTC", "PBM E-score": -0.15}, {"sequence": "CGGTTGGC", "PBM E-score": 0.169}, {"sequence": "CTTGGTAA", "PBM E-score": -0.0416}, {"sequence": "GGCAGAAC", "PBM E-score": 0.0797}, {"sequence": "ATTCGAGG", "PBM E-score": 0.0182}, {"sequence": "CTCAACAA", "PBM E-score": -0.108}, {"sequence": "GATCCTAA", "PBM E-score": -0.0694}, {"sequence": "ATCTTTGG", "PBM E-score": -0.125}, {"sequence": "CCAGAGGG", "PBM E-score": -0.0691}, {"sequence": "ATGTACAT", "PBM E-score": -0.0772}, {"sequence": "TTGGACAA", "PBM E-score": -0.195}, {"sequence": "AGCCGTCA", "PBM E-score": 0.0565}, {"sequence": "CGTACCAG", "PBM E-score": -0.0285}, {"sequence": "AGCCACGG", "PBM E-score": 0.0832}, {"sequence": "AACCATGG", "PBM E-score": -0.196}, {"sequence": "ATGGTAAT", "PBM E-score": 0.00872}, {"sequence": "AGATCGTA", "PBM E-score": -0.172}, {"sequence": "CAGTGCAG", "PBM E-score": -0.237}, {"sequence": "CGTAGCCA", "PBM E-score": -0.104}, {"sequence": "ACGCACGC", "PBM E-score": 0.108}, {"sequence": "CTAGGTGA", "PBM E-score": -0.0859}, {"sequence": "GCGCTTGA", "PBM E-score": -0.189}, {"sequence": "ACTGAAGG", "PBM E-score": -0.139}, {"sequence": "AAACCTGA", "PBM E-score": -0.191}, {"sequence": "CAGACTTC", "PBM E-score": -0.302}, {"sequence": "AGCACGCC", "PBM E-score": -0.103}, {"sequence": "AGGAGGTA", "PBM E-score": -0.0118}, {"sequence": "GCAGACAA", "PBM E-score": -0.195}, {"sequence": "GGTCCAAA", "PBM E-score": 0.117}, {"sequence": "ATTTTAGA", "PBM E-score": 0.0209}, {"sequence": "AGACCCAC", "PBM E-score": -0.0564}, {"sequence": "ATGGGTTA", "PBM E-score": -0.227}, {"sequence": "GGCCCGAA", "PBM E-score": 0.149}, {"sequence": "AGAGAGAT", "PBM E-score": -0.183}, {"sequence": "CCGCTTCA", "PBM E-score": 0.229}, {"sequence": "AGATATGG", "PBM E-score": -0.151}, {"sequence": "CCTGTAAA", "PBM E-score": -0.202}, {"sequence": "CCCTGAAA", "PBM E-score": -0.175}, {"sequence": "AAAGCCAA", "PBM E-score": -0.169}, {"sequence": "CGCGAAGA", "PBM E-score": 0.114}, {"sequence": "AGTTTCCC", "PBM E-score": -0.0973}, {"sequence": "ACTTTTAA", "PBM E-score": -0.0188}, {"sequence": "CCACGAGC", "PBM E-score": 0.00014}]}]}
